The values that follow come from the supplement of paper PMC11417369.

The list shows a part of the results.

The experiment concerns PfAP2-HC AP2 domain (GST-tagged). Briefly: gcPBM binding intensity (ln(normalized median fluorescence intensity)); higher = stronger DNA binding. In a few lines:
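Binding intensity is defined as the maximum Masliner-normalised natural-log median intensity across replicate spots for either probe orientation. It was measured on an Agilent 4 × 180k array of primer-extended double-stranded 36-bp intergenic genomic probes and negative controls, to which GST-tagged P. falciparum DNA-binding domains made in E. coli were applied for 1 h in 1× PBS with 1% milk, 0.2 mg/ml BSA, 0.5% salmon testes DNA and 0.03% Triton X-100. Detection was by Alexa488 anti-GST antibody and scanning at 488 nm.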
“CAATGTTAACATATTACACACATATGTATTTATAAC [CACACA_site7314]”: the “gcPBM binding intensity (ln)” value came to 9.82. As for “TAAATATATAATAAATGTACATATTAATATTATGGT [XGTACX_site1498]”, the figure is 9.74; as for “ATATGATCATTTTATCATTTTGCTTTTTCTTTTTTT [CACACA_negctrl_site1325]”, 9.73; as for “ATCGTGTTAAATGTTGTGCACATATAAATTACAAAA [GTGCAC_site9822]”, 9.66. Take “AATTTTGGAACGTGCACACATATGTAATATATATAT [CACACA_site3067]”: the “gcPBM binding intensity (ln)” value came out at 9.88. The same measure for “TTTTTTTAATGATATTGTACATTAATAAAAAATATG [XGTACX_site1719]”: 9.4; for “ATTTGATATATAATAATACACACTTACATAATTAAT [CACACA_site290]”: 9.73.

“TCTTTTTCAAGATGACGTACTTAGATTAATATAAAA [XGTACX_site3931]”: the “gcPBM binding intensity (ln)” value worked out at 9.31. The same measure for TTTTTAATATATTAGGTGCACAATAATACACTTTAT: 9.75; for “TATATATATATTTATACACACACATATATTTATATA [CACACA_site8054]”: 10.1; for “ATTAGTATAATGTAACTTAGTTAATAGTGCTAATAT [CACACA_negctrl_site764]”: 9.82. As for “CAAAAGTAAGCACGCACACACAACATGAAATAAAAT [CACACA_site165]”, the “gcPBM binding intensity (ln)” value was 10.8. The same measure for “TATACACTTATTGGTGGTACAATATATAAATATATG [XGTACX_site3289]”: 9.56; for “TTTTGATCTGAAGGAACCTAAAAAGGGAAGAGAAAA [CACACA_negctrl_site1656]”: 9.37; for “AAAAAAAACACGCGCACACACACACCCACCCACCGA [CACACA_site2206]”: 11.5. On to “TATATTTATAACAACACACACAGATCATAAAACTGC [CACACA_site7086]”, for which the “gcPBM binding intensity (ln)” value amounted to 10.6.

Take “ACAAAATAAAACATCTGTACATATTATTATTATAAG [XGTACX_site4802]”: the “gcPBM binding intensity (ln)” value is 9.71.

Regarding “ATATTTTGTAACTATACACACATATTTATATTATAA [CACACA_site7433]”, the “gcPBM binding intensity (ln)” value was determined as 9.73. As for “ATATATATAAATAATTGTACATAATAATAAAATATA [XGTACX_site4839]”, the figure is 9.73; as for “ATATAAAATATTACGTGTACACATAAATAAAAATAA [XGTACX_site3746]”, 9.92. As for “CAAGTAGATATTATACGTACATATATATATATATAT [XGTACX_site8349]”, the figure is 9.61. Consider “TTTTATACATATTTTACACACTAAAATATACCTATA [CACACA_site6286]”, for which the “gcPBM binding intensity (ln)” value is 9.79. The same measure for “TAAAAAATATACATTCGTACATATATATTATATATA [XGTACX_site7918]”: 9.51. On to “TACATATATATATTATGTACATAAGGTTTGAGTTCA [XGTACX_site2726]”, for which the “gcPBM binding intensity (ln)” value was 9.69. On to “GAAAAAAAAGCTTGCACACGTATTTGCTTTATGTAT [CACACA_site4931]”, for which the “gcPBM binding intensity (ln)” value is 9.92. The same measure for “TTTTTGGTATTATTGTGTACTTATAAATAATATAAT [XGTACX_site4019]”: 9.64.

Take “AAAAAAAAATATACATATATATATATATATATATAT [CACACA_negctrl_site1763]”: the “gcPBM binding intensity (ln)” value was 9.61. With “ATAATTCCAAGAATTTCATATATCTGAATTTTAGGT [GTGCAC_negctrl_site283]”, the “gcPBM binding intensity (ln)” value is 9.4. On to “ATATATATATATATTACACACTTTTTCTTTTTTTTT [CACACA_site2780]”, for which the “gcPBM binding intensity (ln)” value was determined as 9.81. The same measure for “AATAAACATAAATAAAAATTATAAAATATATATATG [CACACA_negctrl_site1709]”: 9.75; for “TTTACATTTCAGTAGACACACAAAAAATAATACTAA [CACACA_site512]”: 9.63.

For the sequence “GTTCCATGAGTATATACATGCATATATCTAGTTTAT [TGCATGCA_site388]”, the “gcPBM binding intensity (ln)” value is 9.87.

On to “TTTTAAATAAAAAAATTAAATTAAAATATATAAAAA [XGTACX_negctrl_site490]”, for which the “gcPBM binding intensity (ln)” value was determined as 9.34. The same measure for “TGTTTATACAATATTTGTACATATATTTTTATTTTT [XGTACX_site4104]”: 9.76; for “CATTTTTACAACGTTGCACACTTCAAAAGGTTTACA [CACACA_site2760]”: 9.79; for “GATACTCTCTTTTAATGTACAAAATTTTAAAAATTA [XGTACX_site1781]”: 9.2. As for “TATAAAAAAAAAAAAAGTACTTAAATATAAATAAAT [XGTACX_site5052]”, the “gcPBM binding intensity (ln)” value is 9.66.

For the sequence “AATTTATGTTTTAAAAGTACTTTTCTAATTTATAAA [XGTACX_site1593]”, the “gcPBM binding intensity (ln)” value is 9.75.

Consider “TATGTACAGACATATACACACCTCTATAATCTATAT [CACACA_site6482]”, for which the “gcPBM binding intensity (ln)” value was determined as 9.87. As for “CTAAAGTAAATTTAAGCACACACAACGAATTTTTAT [CACACA_site8599]”, the figure is 10.2; as for “AATTAAAAAAAATACACACACACATACCCATATATA [CACACA_site5767]”, 10.4; as for “AATGATATATTATAAACACACAAAGATGAATATATA [CACACA_site2818]”, 9.92. As for “ATTCATTCATATGTTACACACACACCCACCCATAAA [CACACA_site9066]”, the figure is 10.1. As for “TACCCTCGTATATATATACACACTAAAATACAGACA [CACACA_site4154]”, the figure is 9.66; as for “TTTATCGAATATAATAGTACATAAAAAAAAAAAAAA [XGTACX_site1734]”, 9.33. As for “AGATTATATAAAAAAGTGCATATTTTCATTTTTTTT [GTGCAC_site9448]”, the “gcPBM binding intensity (ln)” value came out at 9.55.

On to “CATTAAAATGGTAAATGTACATATCCATCTTCTCAC [XGTACX_site4636]”, for which the “gcPBM binding intensity (ln)” value stood at 9.81.

For “TCCCTTTGTATATATATATAAATATATATATATATA [CACACA_negctrl_site157]”, the “gcPBM binding intensity (ln)” value came out at 9.65. As for “AAAAAAGAAAAAAACTGTACATGATAAATATTTATT [XGTACX_site7270]”, the “gcPBM binding intensity (ln)” value worked out at 9.71.

For “ACATTTTTTTTGTGAGTCTTTGCGGCATCAAAATTT [XGTACX_negctrl_site348]”, the “gcPBM binding intensity (ln)” value worked out at 9.5. The same measure for “TTATGAAGCAGACATGCATGTTATGGCTTAAATAAT [TGCATGCA_site492]”: 9.65; for “TTTAAGCAAAAACACACACACATATATATATATATA [CACACA_site349]”: 11.1. For “AAAAAATGATAATATACACACTTATGGGAGAGCGCA [CACACA_site5398]”, the “gcPBM binding intensity (ln)” value is 9.99.

Regarding “TATAAATATATATACACACACATATATATTATATAT [CACACA_site596]”, the “gcPBM binding intensity (ln)” value turned out to be 10.3. As for “ATTATGTTTCTTTTTTTTTTTAAAGGATGTCTTTTT [CACACA_negctrl_site974]”, the figure is 9.5; as for “AATATTAAACAAAATAAATATATAAAAAATAAATAA [GTGCAC_negctrl_site93]”, 9.77.
